According to patent publication US20210340207A1 (Merck Sharp & Dohme, published 2021):

Experiments:
[1] = biological target: T1, Human IL-2Rβ (Table 7B) (human, UniProt P14784 27-239, limits assumed); test: SPR (Biacore T200)
T1 sequence (looked up): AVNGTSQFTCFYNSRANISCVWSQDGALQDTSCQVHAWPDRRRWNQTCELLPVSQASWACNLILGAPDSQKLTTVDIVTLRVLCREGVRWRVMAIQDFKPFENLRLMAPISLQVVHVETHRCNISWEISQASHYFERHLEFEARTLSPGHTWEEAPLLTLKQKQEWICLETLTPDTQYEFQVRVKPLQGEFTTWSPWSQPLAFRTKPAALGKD

[2] = biological target: T2, human IL-2Rαβγc (on Kit225-STAT5 reporter cells, NK-92 cells, primary Treg cells) (human, UniProt P01589 22-272; P14784 27-551; P31785 23-369); test: cell-based or functional assay
T2 sequence (looked up) 1: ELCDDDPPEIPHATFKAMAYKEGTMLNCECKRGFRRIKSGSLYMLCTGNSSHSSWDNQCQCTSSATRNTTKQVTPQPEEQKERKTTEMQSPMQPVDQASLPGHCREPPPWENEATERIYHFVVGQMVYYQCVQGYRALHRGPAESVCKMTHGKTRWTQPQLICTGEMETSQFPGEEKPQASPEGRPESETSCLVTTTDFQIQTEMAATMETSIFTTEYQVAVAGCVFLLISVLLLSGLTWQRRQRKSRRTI
T2 sequence (looked up) 2: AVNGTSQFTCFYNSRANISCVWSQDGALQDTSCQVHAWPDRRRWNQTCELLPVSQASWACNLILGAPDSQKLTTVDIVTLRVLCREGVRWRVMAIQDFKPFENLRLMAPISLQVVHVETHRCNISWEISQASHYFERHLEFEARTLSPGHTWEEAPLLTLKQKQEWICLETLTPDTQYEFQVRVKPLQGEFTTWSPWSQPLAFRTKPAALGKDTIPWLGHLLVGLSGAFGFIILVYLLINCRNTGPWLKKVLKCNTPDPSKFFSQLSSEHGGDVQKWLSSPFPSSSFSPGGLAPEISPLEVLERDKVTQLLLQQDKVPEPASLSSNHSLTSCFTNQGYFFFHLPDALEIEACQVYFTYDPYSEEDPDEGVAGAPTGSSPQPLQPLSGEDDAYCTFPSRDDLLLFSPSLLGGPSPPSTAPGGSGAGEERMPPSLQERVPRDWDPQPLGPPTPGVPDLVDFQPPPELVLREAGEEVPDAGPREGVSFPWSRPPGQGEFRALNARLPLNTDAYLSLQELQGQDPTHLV
T2 sequence (looked up) 3: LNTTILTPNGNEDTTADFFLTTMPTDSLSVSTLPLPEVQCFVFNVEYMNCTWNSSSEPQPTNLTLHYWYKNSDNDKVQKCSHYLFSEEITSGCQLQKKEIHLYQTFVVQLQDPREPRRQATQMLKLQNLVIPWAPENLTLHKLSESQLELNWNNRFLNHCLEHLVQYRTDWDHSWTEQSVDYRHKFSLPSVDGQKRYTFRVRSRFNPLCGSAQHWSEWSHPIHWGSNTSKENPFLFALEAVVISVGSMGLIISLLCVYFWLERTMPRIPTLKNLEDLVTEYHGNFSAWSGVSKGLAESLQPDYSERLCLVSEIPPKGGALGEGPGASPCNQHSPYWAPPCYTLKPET

[3] = biological target: T3, human IL-2Rβγc (on DERL-7 cells, U2OS IL2RB/IL2RG cells, CD25 knockout Kit225-STAT5 cells, primary CD8+ CTLs) (human, UniProt P14784 27-551; P31785 23-369); test: cell-based or functional assay
T3 sequence (looked up) 1: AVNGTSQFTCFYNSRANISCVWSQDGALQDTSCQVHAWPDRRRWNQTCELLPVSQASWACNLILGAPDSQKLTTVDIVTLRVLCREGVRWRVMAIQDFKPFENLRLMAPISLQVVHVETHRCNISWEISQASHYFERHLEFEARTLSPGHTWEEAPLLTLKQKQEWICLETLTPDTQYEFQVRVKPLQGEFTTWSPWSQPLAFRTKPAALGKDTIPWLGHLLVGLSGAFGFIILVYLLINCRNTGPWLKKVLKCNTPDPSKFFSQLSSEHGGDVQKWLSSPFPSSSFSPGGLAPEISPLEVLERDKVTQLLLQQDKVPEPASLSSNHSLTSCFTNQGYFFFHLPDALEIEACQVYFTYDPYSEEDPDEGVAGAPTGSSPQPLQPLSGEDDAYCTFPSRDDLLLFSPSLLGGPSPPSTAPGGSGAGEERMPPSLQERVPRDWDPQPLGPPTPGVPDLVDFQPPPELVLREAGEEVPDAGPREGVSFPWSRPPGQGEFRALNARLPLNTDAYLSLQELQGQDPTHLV
T3 sequence (looked up) 2: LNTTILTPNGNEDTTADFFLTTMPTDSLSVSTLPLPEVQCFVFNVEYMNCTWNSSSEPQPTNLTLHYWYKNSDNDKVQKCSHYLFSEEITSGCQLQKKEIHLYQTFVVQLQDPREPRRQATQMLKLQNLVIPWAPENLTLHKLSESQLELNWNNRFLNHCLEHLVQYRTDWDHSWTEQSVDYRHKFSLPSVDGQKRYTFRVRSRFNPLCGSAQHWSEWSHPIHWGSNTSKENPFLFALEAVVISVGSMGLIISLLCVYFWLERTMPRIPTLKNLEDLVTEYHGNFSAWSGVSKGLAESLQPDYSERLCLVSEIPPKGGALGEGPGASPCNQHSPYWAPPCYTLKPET

[4] = biological target: T2, human IL-2Rαβγc (on Kit225-STAT5 …); test: cell-based or functional assay; remark: listed apart in the source
[5] = biological target: T3, human IL-2Rβγc (on DERL-7 cells, U2OS …); test: cell-based or functional assay; remark: listed apart in the source

Binder | Kd [1] [nM] | koff [1] [s⁻¹] | kon [1] [M⁻¹ s⁻¹] | Kit225-STAT5 EC50 [2] [nM] | Kit225-STAT5 EC50 Fold-change [2] [fold] | NK-92 EC50 Fold-change [2] [fold] | NK-92 proliferation EC50 [2] [nM] | DERL-7 EC50 Fold-change [3] [fold] | DERL-7 proliferation EC50 [3] [nM] | pSTAT5 Treg Fold-change from wt, donor #1 [4] [fold] | pSTAT5 Treg Fold-change from wt, donor #2 [4] [fold] | pSTAT5 Treg cells EC50, donor #1 [4] [pM] | pSTAT5 Treg cells EC50, donor #2 [4] [pM] | pSTAT5 CTLs EC50, donor #1 [5] [nM] | pSTAT5 CTLs EC50, donor #2 [5] [nM] | pSTAT5 CTLs Fold-change from wt, donor #1 [5] [fold] | pSTAT5 CTLs Fold-change from wt, donor #2 [5] [fold]
Ald-6HIS (ligand, also called aldesleukin with carboxyl-terminus HIS6-tag linked via a Gly-Gly-Ser linker) not shown | 1200 | 0.31 | 250000 | – | – | – | – | – | – | – | – | – | – | – | – | – | –
Aldesleukin (DesA1_IL-2_C124S) (ligand) not shown | – | – | – | 0.001 | 1 | 1 | 0.006 | 1 | 0.044 | 1 | 1 | 3 | 3 | 2.83 | 0.97 | 1 | 1
